Experimental data from the supplement of paper PMC8728848.
Some of the results follow.

Columns and labels:
Test in all cases: glycan array binding signal (z-score within array); higher = stronger binding
Conditions in all cases: glycan notation: IUPAC condensed, linker removed
[1] = target: Neu5Ac(a2-3)Gal(b1-4)[Fuc(a1-3)]GlcNAc
Summary of the method: (§1)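 Arrays were curated from the Consortium for Functional Glycomics database, 3228 in total, and kept only where the protein sequence was available. Binding is expressed as a within-array Z-score. This score was averaged across arrays of the same protein sequence at different concentrations or buffers and across linkers, and negative values can be read as non-binding.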

[2] = target: Neu5Ac(a2-3)Gal(b1-4)[Fuc(a1-3)]GlcNAc(b1-3)Gal
Summary of the method: as §1

[3] = target: Neu5Ac(a2-3)Gal(b1-4)[Fuc(a1-3)]GlcNAc(b1-3)Gal(b1-4)GlcNAc
Summary of the method: as §1

[4] = target: Neu5Ac(a2-3)Gal(b1-4)[Fuc(a1-3)]GlcNAc(b1-3)Gal(b1-4)[Fuc(a1-3)]GlcNAc(b1-3)Gal(b1-4)[Fuc(a1-3)]GlcNAc
Summary of the method: as §1

[5] = target: Neu5Ac(a2-3)Gal(b1-4)[Fuc(a1-3)]GlcNAc(b1-6)[Gal(b1-3)]GalNAc
Summary of the method: as §1

[6] = target: Neu5Ac(a2-3)Gal(b1-4)[Fuc(a1-3)]GlcNAc6S
Summary of the method: as §1

[7] = target: Neu5Ac(a2-3)Gal6S(b1-4)GlcNAc
Summary of the method: as §1

[8] = target: Neu5Ac(a2-3)Gal6S(b1-4)[Fuc(a1-3)]GlcNAc
Summary of the method: as §1

Neu5Ac(a2-3)GalNAc = target: Neu5Ac(a2-3)GalNAc
Summary of the method: as §1

[9] = target: Neu5Ac(a2-3)GalNAc(b1-4)GlcNAc
Summary of the method: as §1

[10] = target: Neu5Ac(a2-3)[GalNAc(b1-4)]Gal(b1-4)Glc
Summary of the method: as §1

[11] = target: Neu5Ac(a2-3)[GalNAc(b1-4)]Gal(b1-4)GlcNAc
Summary of the method: as §1

[12] = target: Neu5Ac(a2-3)[Neu5Ac(a2-6)]GalNAc
Summary of the method: as §1

Neu5Ac(a2-6)Gal = target: Neu5Ac(a2-6)Gal
Summary of the method: as §1

Neu5Ac(a2-6)Gal(b1-4)Glc = target: Neu5Ac(a2-6)Gal(b1-4)Glc
Summary of the method: as §1

[13] = target: Neu5Ac(a2-6)Gal(b1-4)GlcNAc
Summary of the method: as §1

[14] = target: Neu5Ac(a2-6)Gal(b1-4)GlcNAc(b1-2)Man(a1-3)[Gal(b1-4)GlcNAc(b1-2)Man(a1-6)]Man(b1-4)GlcNAc(b1-4)GlcNAc
Summary of the method: as §1

[15] = target: Neu5Ac(a2-6)Gal(b1-4)GlcNAc(b1-2)Man(a1-3)[GlcNAc(b1-2)Man(a1-6)]Man(b1-4)GlcNAc(b1-4)GlcNAc
Summary of the method: as §1

[16] = target: Neu5Ac(a2-6)Gal(b1-4)GlcNAc(b1-2)Man(a1-3)[GlcNAc(b1-2)Man(b1-4)GlcNAc(b1-2)Man(a1-6)]Man(b1-4)GlcNAc(b1-4)GlcNAc
Summary of the method: as §1

[17] = target: Neu5Ac(a2-6)Gal(b1-4)GlcNAc(b1-2)Man(a1-3)[Neu5Ac(a2-6)Gal(b1-4)GlcNAc(b1-2)Man(a1-6)]Man(b1-4)GlcNAc(b1-4)GlcNAc
Summary of the method: as §1

[18] = target: Neu5Ac(a2-6)Gal(b1-4)GlcNAc(b1-2)Man(a1-6)[Gal(b1-4)GlcNAc(b1-2)Man(a1-3)]Man(b1-4)GlcNAc(b1-4)GlcNAc
Summary of the method: as §1

[19] = target: Neu5Ac(a2-6)Gal(b1-4)GlcNAc(b1-2)Man(a1-6)[GlcNAc(b1-2)Man(a1-3)]Man(b1-4)GlcNAc(b1-4)GlcNAc
Summary of the method: as §1

[20] = target: Neu5Ac(a2-6)Gal(b1-4)GlcNAc(b1-3)Gal(b1-4)GlcNAc
Summary of the method: as §1

[21] = target: Neu5Ac(a2-6)Gal(b1-4)GlcNAc(b1-3)Gal(b1-4)[Fuc(a1-3)]GlcNAc(b1-3)Gal(b1-4)[Fuc(a1-3)]GlcNAc
Summary of the method: as §1

[22] = target: Neu5Ac(a2-6)Gal(b1-4)GlcNAc6S
Summary of the method: as §1

Neu5Ac(a2-6)GalNAc = target: Neu5Ac(a2-6)GalNAc
Summary of the method: as §1

[23] = target: Neu5Ac(a2-6)GalNAc(b1-4)GlcNAc
Summary of the method: as §1

Neu5Ac(a2-8)Neu5Ac = target: Neu5Ac(a2-8)Neu5Ac
Summary of the method: as §1

[24] = target: Neu5Ac(a2-8)Neu5Ac(a2-3)Gal(b1-4)Glc
Summary of the method: as §1

[25] = target: Neu5Ac(a2-8)Neu5Ac(a2-3)[GalNAc(b1-4)]Gal(b1-4)Glc
Summary of the method: as §1

[26] = target: Neu5Ac(a2-8)Neu5Ac(a2-8)Neu5Ac
Summary of the method: as §1

[27] = target: Neu5Ac(a2-8)Neu5Ac(a2-8)Neu5Ac(a2-3)Gal(b1-4)Glc
Summary of the method: as §1

[28] = target: Neu5Ac(a2-8)Neu5Ac(a2-8)Neu5Ac(a2-3)[GalNAc(b1-4)]Gal(b1-4)Glc
Summary of the method: as §1

[29] = target: Neu5Ac(a2-8)Neu5Ac(a2-8)Neu5Ac(a2-8)Neu5Ac(a2-3)[GalNAc(b1-4)]Gal(b1-4)Glc
Summary of the method: as §1

[30] = target: Neu5Ac(b2-6)Gal(b1-4)GlcNAc
Summary of the method: as §1

Neu5Ac(b2-6)GalNAc = target: Neu5Ac(b2-6)GalNAc
Summary of the method: as §1

[31] = target: Neu5Ac9Ac(a2-6)Gal(b1-4)GlcNAc
Summary of the method: as §1

[32] = target: Neu5Gc(a2-3)Gal(b1-3)GlcNAc
Summary of the method: as §1

[33] = target: Neu5Gc(a2-3)Gal(b1-3)[Fuc(a1-4)]GlcNAc
Summary of the method: as §1

Neu5Gc(a2-3)Gal(b1-4)Glc = target: Neu5Gc(a2-3)Gal(b1-4)Glc
Summary of the method: as §1

[34] = target: Neu5Gc(a2-3)Gal(b1-4)GlcNAc
Summary of the method: as §1

[35] = target: Neu5Gc(a2-3)Gal(b1-4)[Fuc(a1-3)]GlcNAc
Summary of the method: as §1

[36] = target: Neu5Gc(a2-6)Gal(b1-4)GlcNAc
Summary of the method: as §1

Neu5Gc(a2-6)GalNAc = target: Neu5Gc(a2-6)GalNAc
Summary of the method: as §1

[37] = target: Neu5Gc(b2-6)Gal(b1-4)GlcNAc
Summary of the method: as §1

B1: NKp30 (Homo sapiens), O14931 (protein)
chain: MAWMLLLILIMVHPGSCALWVSQPPEIRTLEGSSAFLPCSFNASQGRLAIGSVTWFRDEVVPGKEVRNGTPERFGRLAPLASSRFLHDHQAELHIRDVRGHDASIYVCRVEVLGLGVGTGNGTRLVVRKEHPQLGAGTHADPEAPEAEGAPSVFLFPPKPKDTLMISRTPEVTCVVVDVSHEDPEVKFNWYVDGVEVHNAKTPREEQYNSTYRVVSVLTVLHQDWLNGKEYKCKVSNKALPAPIEKTISKAKGQPREPQVYTLPPSRDELTKNQVSLTCLVKGFYPSDIAVEWESNGQPENNYKTTPPVLDSDGSFFLYSKLTVDKSRWQQGNVFSCSVMHEALHNHYTQKSLSLSPGK
With B1 the “glycan array binding signal (z-score)” value [1] was -0.045, the “glycan array binding signal (z-score)” value [2] was 0.191 and the “glycan array binding signal (z-score)” value [3] was 0.418. The “glycan array binding signal (z-score)” value [4] was -0.204, the “glycan array binding signal (z-score)” value [5] was 0.109 and the “glycan array binding signal (z-score)” value [6] was 0.03. For the same binder, the “glycan array binding signal (z-score)” value [7] was 0.174, the “glycan array binding signal (z-score)” value [8] was -0.334 and the “glycan array binding signal (z-score)” value (Neu5Ac(a2-3)GalNAc) was -0.251. The “glycan array binding signal (z-score)” value [9] was -0.498, the “glycan array binding signal (z-score)” value [10] was -0.614 and the “glycan array binding signal (z-score)” value [11] was -0.491. The “glycan array binding signal (z-score)” value [12] was -0.104, the “glycan array binding signal (z-score)” value (Neu5Ac(a2-6)Gal) was 0.626 and the “glycan array binding signal (z-score)” value (Neu5Ac(a2-6)Gal(b1-4)Glc) was 0.02. The “glycan array binding signal (z-score)” value [13] was 0.076, the “glycan array binding signal (z-score)” value [14] was 0.066 and the “glycan array binding signal (z-score)” value [15] was -0.437. The “glycan array binding signal (z-score)” value [16] was -0.415, the “glycan array binding signal (z-score)” value [17] was -0.389 and the “glycan array binding signal (z-score)” value [18] was 0.018. The “glycan array binding signal (z-score)” value [19] was -0.315, the “glycan array binding signal (z-score)” value [20] was -0.604 and the “glycan array binding signal (z-score)” value [21] was -0.38. For the same binder, the “glycan array binding signal (z-score)” value [22] was -0.276, the “glycan array binding signal (z-score)” value (Neu5Ac(a2-6)GalNAc) was -0.49 and the “glycan array binding signal (z-score)” value [23] was -0.506. For the same binder, the “glycan array binding signal (z-score)” value (Neu5Ac(a2-8)Neu5Ac) was -0.523, the “glycan array binding signal (z-score)” value [24] was -0.405 and the “glycan array binding signal (z-score)” value [25] was 0.136. For the same binder, the “glycan array binding signal (z-score)” value [26] was -0.521, the “glycan array binding signal (z-score)” value [27] was -0.275 and the “glycan array binding signal (z-score)” value [28] was -0.221. For the same binder, the “glycan array binding signal (z-score)” value [29] was -0.717, the “glycan array binding signal (z-score)” value [30] was 0.294 and the “glycan array binding signal (z-score)” value (Neu5Ac(b2-6)GalNAc) was -0.201. The “glycan array binding signal (z-score)” value [31] was 0.048, the “glycan array binding signal (z-score)” value [32] was -0.401 and the “glycan array binding signal (z-score)” value [33] was -0.11. The “glycan array binding signal (z-score)” value (Neu5Gc(a2-3)Gal(b1-4)Glc) was 0.058, the “glycan array binding signal (z-score)” value [34] was -0.606 and the “glycan array binding signal (z-score)” value [35] was -0.362. The “glycan array binding signal (z-score)” value [36] was -0.135, the “glycan array binding signal (z-score)” value (Neu5Gc(a2-6)GalNAc) was 0.096 and the “glycan array binding signal (z-score)” value [37] was 0.315.
